# Over roughly 33,000 sequences, “E-score (-0.5 to 0.5)” has its median near -0.021; the highest 2% begin near 0.32. The list shows a part of the results.
# Target: T1, Zap1 (UniProt P47043)
# T1 sequence: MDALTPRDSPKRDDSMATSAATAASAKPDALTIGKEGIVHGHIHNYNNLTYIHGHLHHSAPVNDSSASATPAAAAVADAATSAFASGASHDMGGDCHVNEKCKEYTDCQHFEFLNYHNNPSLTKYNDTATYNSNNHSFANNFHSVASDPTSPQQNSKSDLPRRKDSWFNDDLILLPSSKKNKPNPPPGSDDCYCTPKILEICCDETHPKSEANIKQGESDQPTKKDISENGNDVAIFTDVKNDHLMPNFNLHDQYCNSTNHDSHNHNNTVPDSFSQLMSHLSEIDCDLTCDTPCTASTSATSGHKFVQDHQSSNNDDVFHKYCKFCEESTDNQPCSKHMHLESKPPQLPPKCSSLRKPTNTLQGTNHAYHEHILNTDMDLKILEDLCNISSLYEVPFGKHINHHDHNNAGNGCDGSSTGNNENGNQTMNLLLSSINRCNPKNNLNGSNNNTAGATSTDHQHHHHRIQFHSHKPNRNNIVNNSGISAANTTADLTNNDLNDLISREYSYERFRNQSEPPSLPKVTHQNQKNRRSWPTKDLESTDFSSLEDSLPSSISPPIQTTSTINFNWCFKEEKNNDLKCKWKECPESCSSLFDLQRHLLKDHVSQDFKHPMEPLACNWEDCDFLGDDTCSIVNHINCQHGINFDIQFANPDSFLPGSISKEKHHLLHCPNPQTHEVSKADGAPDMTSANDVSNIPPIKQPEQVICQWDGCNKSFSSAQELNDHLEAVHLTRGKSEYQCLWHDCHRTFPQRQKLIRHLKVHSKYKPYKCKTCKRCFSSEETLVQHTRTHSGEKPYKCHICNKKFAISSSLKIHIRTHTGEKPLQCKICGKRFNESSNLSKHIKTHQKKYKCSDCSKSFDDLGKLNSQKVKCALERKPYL
# Assay: PBM E-score (8-mer binding enrichment) (E-score (-0.5 to 0.5)); higher = stronger / more preferred TF binding; most listed sequences are background and not binding sites
# Conditions: protein concentration: 200 nM; construct: GST-full length
# How it was run: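 The E-score, a modified Wilcoxon-Mann-Whitney statistic, was computed by the Universal PBM Analysis Suite for every ungapped eight-base word pooled with its reverse complement. Scans behind it were normalised with masliner after bound GST-tagged yeast transcription factors were detected with fluorescent anti-GST. The proteins, at about 100-200 nM, had been applied to universal all-10-mer Agilent arrays made double-stranded by primer extension.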
row,Sequence,PBM E-score
1,AGTAGCGC,-0.133
2,GGTCGCCA,0.188
3,AAAACTTG,0.186
4,CCATCCTA,-0.114
5,CGGGCCAC,0.125
6,TAGAATCA,-0.112
7,ACTAGTGA,-0.146
8,ATTAACCC,0.334
9,CTCCCTTA,-0.21
10,CCCATGTC,-0.158
11,AAGGTGCT,0.00603
12,CCCAATGA,-0.0489
13,TCGAAAGA,0.00149
14,CTAAGCAC,-0.0999
15,GACTAGGC,-0.182
16,AACAACCA,0.319
17,GGTATGGA,0.0523
18,CTCCATCC,-0.206
19,ACGCGTAG,-0.0985
20,CATCACGG,0.0839
21,ATACAAGA,0.0262
22,GGATCTAC,-0.276

row,Sequence,PBM E-score
1,CGATGTAA,-0.0289
2,AACTGACC,0.0678
3,AATGAGCG,-0.0744
4,CGATATCC,0.16
5,GCGTCCAC,-0.157
6,AATTGGTG,-0.0331
7,CGTATAAC,0.2
8,ACGGCGTC,-0.107
9,ATACTGCC,-0.15
10,GCTTAAAA,0.164
11,CATTTCCA,-0.00225
12,CAGTGTCC,0.0369
13,CCACCTTA,0.342
14,GTCAGGAA,0.09
15,ATAGCTTG,-0.0296
16,GTAAAATA,0.235
17,ACGCTGAT,-0.1
18,AACCGGCT,0.139
19,CTCGCCCC,-0.294
20,TAGTAAGA,0.033
21,ATAATAAG,0.12
22,CCTCACTC,0.0483

row,Sequence,PBM E-score
1,CGGCGGTC,0.00317
2,AGGCTAAC,-0.0255
3,GTGTTGTA,-0.13
4,CAACACCC,-0.0121
5,CTCGGGGA,-0.0438
6,AAGACATA,0.0348
7,AACAAGTC,-0.0703
8,CTCCAGAA,0.05
9,ACATCTAT,0.0742
10,AGCACCCC,-0.0687
11,GGACATAA,0.14
12,CGCGGGAA,0.0135
13,GTGAGTTA,0.00241
14,AGTGATGA,-0.0675
15,AGTATTAA,0.214
16,CTCGCAAG,0.198
17,ACCCAGGC,0.193
18,CCGCCGAA,-0.104
19,ATGGGGCA,-0.087
20,CAACTGAA,-0.0395
21,GGAGATCA,-0.112
22,AGGCGACT,-0.323

row,Sequence,PBM E-score
1,CCTAAGGA,-0.0157
2,CCCTATGC,0.176
3,AGAAAGCG,0.00865
4,ACTTCGGA,0.0252
5,CCGCCCCA,0.134
6,AGTGTCTA,0.0179
7,CGTAATCA,0.196
8,ACTCCCCA,-0.219
9,CTTACTCC,-0.125
10,GTGGCAAC,-0.131
11,ATGGGTAA,0.242
12,CTATAGTC,-0.125
13,CAACACCG,-0.0547
14,ATTCCTCG,0.012
15,AACCGTAT,0.0139
16,ACTTACAA,0.093
17,AAGAGTAA,0.0944
18,CAAACGGC,-0.257
19,ATTGAAGG,-0.321
20,CCTGTGAC,0.00603

# — the supplement of paper PMC3334620
